# Source: PubChem BioAssay AID493208 (National Center for Advancing Translational Sciences (NCATS), 2011)
# Out of some 44,000 compounds screened, about 340 (0.77%) were called active. This list was built around the results that the source calls inconclusive (neither active nor inactive); the mix of calls is not that of the screen. Calls follow the shape of the dose curve; as a rule, active = well fitted inhibition curve with a large enough effect; inconclusive = small, poorly fitted or top-dose-only effect; inactive = flat fitted curve, though single readings scatter. Potencies of inconclusive entries are left out as doubtful fits.
# Assay: Acumen qHTS Assay for Inhibitors of the mTORC1 Signaling Pathway in MEF (Tsc2-/-, p53-/-) Cells: Sytravon; also: nearly all actives have a fitted effect of over 50% in size;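 as to activity change, negative = inhibition: plate controls were DMSO for no effect and rapamycin for full effect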
# Settings: phospho-rpS6 immunofluorescence/PI, 24 h; series mostly up to 38.3 µM; activity change, negative = inhibition: at the top concentration
# Procedure, shortened: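 Plate MEFs (Tsc2-/-, p53-/-, empty vector) in DMEM/10% FBS; after 24 h add compound, incubate 24 h at 37 degree Celsius; fix in PFA/TX-100, block, stain phospho-rpS6 and 10 uM PI; scan at 488 nm; report % positive cells.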
# Potency is read from the fitted curve at half-maximal effect; tags tell the direction and shape of the fitted curve.
SMILES,Potency,"activity change, negative = inhibition"
COc1ccc(-n2ncc3c(NCCCOC(C)C)ncnc32)cc1,"inconclusive [falling, partial curve]",–
COc1ccc(-n2nc3c(N4CCCC(C(=O)NCc5ccccc5C)C4)nnc(C)c3c2C)cc1 (stereo not given),active: 5.21 µM,–
CNC(=O)C1CCC(Cn2c(=O)c3sccc3n(CC(=O)Nc3ccc(C)cc3C)c2=O)CC1 (stereo not given),"inconclusive [falling, partial curve, poor fit]",–
Cc1[nH]c2ccccc2c1C1(O)C(=O)N(Cc2ccccc2)c2ccc(Br)cc21 (stereo not given),"inconclusive [falling, full curve]",–
COc1cccc(C2C=C(c3ccc(C)cc3)Nc3c(C(=O)Nc4ccc(F)cc4)cnn32)c1OC (stereo not given),–,inactive: 3.89%
CCOc1ccc(-c2n[nH]c3c2C(c2cccs2)N(c2ccc(Br)cc2)C3=O)cc1 (stereo not given),"inconclusive [falling, single point]",–
CC(=O)N1c2ccc(S(=O)(=O)NCC3CCC(C(=O)Nc4cccc(F)c4)CC3)cc2CC1C (stereo not given),"inconclusive [falling, single point]",–
CC(C)c1cnc2c(c1SCC(=O)c1ccc(Cl)cc1)c(=O)n(C)c(=O)n2C,"inconclusive [falling, single point]",–
C#CCOc1c(Br)cc(C2C(C(=O)OC)=C(C)NC3=C2C(=O)c2ccccc23)cc1OCC (stereo not given),"inconclusive [falling, single point]",–
CSc1ccc(CCNS(=O)(=O)c2cc(-c3cc(C)no3)ccc2C)cc1,"inconclusive [falling, partial curve, poor fit]",–
COc1cccc(OCCn2c(-c3ccc(Cl)cc3)nc3ccccc3c2=O)c1,"inconclusive [falling, single point]",–
CCOc1cc(CNC(=O)c2cc(-c3ccc(Cl)s3)nc3ccccc23)ccc1OC,–,inactive: -1.3%
Cc1cc(C)c2c(NC(=O)c3ccccc3Cl)c(C(=O)Nc3ccc(C)c(C)c3)sc2n1,"inconclusive [falling, full curve, poor fit]",–
CCC1=Nc2cc(C(=O)NC3CCCC3)ccc2Sc2ccc(Cl)cc21,"inconclusive [falling, partial curve]",–
CCOC(=O)c1cc(S(=O)(=O)N2CCN(c3cccc(C)c3)C(C)C2)[nH]n1 (stereo not given),–,inactive: 3.44%
Cc1ccc2nc3sc(C(=O)Nc4ccc(F)cc4)cc3cc2c1,"inconclusive [falling, single point]",–
CCOc1ccc(CCNc2ncnc3onc(C)c23)cc1OCC,"inconclusive [falling, full curve, poor fit]",–
COc1cc(C(=O)N(CCCN(C)C)c2nc3c(OC)cccc3s2)cc(OC)c1OC,active: 18.5 µM,–
COc1cccc(C(=O)NCC(c2ccc3c(c2)OCO3)N2CCN(C)CC2)c1 (stereo not given),–,inactive: -8.31%
Cc1cccc(NC(c2cccc(Cl)c2)c2ccc3cccnc3c2O)n1 (stereo not given),"inconclusive [falling, partial curve]",–
CC(=O)N1CCc2cc(CNS(=O)(=O)c3cccs3)ccc21,"inconclusive [falling, partial curve, poor fit]",–
COc1ccccc1-c1cc(C(=O)Nc2c(C)nn(Cc3ccc(Cl)cc3)c2C)no1,"inconclusive [falling, single point]",–

SMILES,Potency,"activity change, negative = inhibition"
CCCCN(CCCNC(=O)c1cc(Nc2ccc(OC)cc2OC)nc2ccccc12)Cc1ccccc1,–,inactive: -21.3%
CCC1=Nc2cc(C(=O)NCCc3ccccc3)ccc2Sc2ccc(Cl)cc21,"inconclusive [falling, full curve, poor fit]",–
COc1ccc(Nc2cc(C(=O)NCCCN(C)Cc3ccccc3)c3ccccc3n2)cc1OC,"inconclusive [falling, single point]",–
COc1cccc(OCc2nc3ccccc3n2Cc2ccccc2)c1,–,inactive: 3.3%
COc1ccc(N2CCN(CC(O)COc3ccc(C)c(C)c3)CC2)cc1 (stereo not given),"inconclusive [falling, single point]",–
CCn1c(=O)c(=O)n(CC)c2cc(N3CCCCC3)c(NC(=O)c3cccc(OC)c3)cc21,"inconclusive [activator, partial curve, poor fit]",–
CCOc1cccc(NC(=O)CSc2ncc(-c3ccc(Cl)cc3)[nH]2)c1,"inconclusive [falling, partial curve, poor fit]",–
CCCCN(CCCC)S(=O)(=O)c1ccc(NC(=O)c2c(-c3ccccc3)noc2C)cc1,–,inactive: -0.982%
Cc1cc(C)cc(OCCOCCn2c(-c3ccc(Cl)cc3)nc3ccccc3c2=O)c1,"inconclusive [falling, single point]",–
CCOc1ccc(-n2c(-c3ccc(OC)cc3)cc3c2CC(C)(C)CC3=O)cc1,–,inactive: -3.61%
N=c1n(CCO)c2ccccc2n1CCOc1ccc(F)cc1,"inconclusive [falling, single point]",–
c1ccc(CNc2ncnc3[nH]ncc23)cc1,"inconclusive [falling, single point]",–
CCc1ccccc1NC(=O)N1CC(CC)Oc2ccc(Cl)cc21 (stereo not given),"inconclusive [falling, partial curve, poor fit]",–
COc1ccc(N2CCN(C(=O)c3c(C)nn(-c4ccc(F)cc4)c3-n3cccc3)CC2)cc1,–,inactive: -0.283%
CCCC(=O)OC1=CN(Cc2ccccc2)S(=O)(=O)c2ccccc21,active: 16.5 µM,–
CCOC(=O)c1cnc2ccc(C)cc2c1Nc1ccc(OCc2ccccc2Cl)cc1,"inconclusive [falling, single point]",–
CCc1ccc(NC(=O)CC2C(=O)OCCN2CC)cc1 (stereo not given),"inconclusive [falling, single point]",–
CCOC(=O)c1ccc(N2C(=O)c3n[nH]c(-c4cccs4)c3C2c2cccc(F)c2)cc1 (stereo not given),active: 18.5 µM,–
CN(C)c1ccc(NC(=O)CCSc2nc(-c3ccco3)cc(C(F)(F)F)n2)cc1,–,inactive: -15%
COCCCNC(=O)CSc1c2c(nc3ccc(Cl)cc13)CCCC2,"inconclusive [falling, single point]",–
Cc1nnc(SCC(=O)Nc2ccc(Br)cc2)[nH]c1=O,"inconclusive [falling, full curve, poor fit]",–
CCOc1cc(CNc2ccc(O)cc2)ccc1OCc1ccc(Cl)cc1,"inconclusive [falling, partial curve, poor fit]",–

SMILES,Potency,"activity change, negative = inhibition"
CC(=O)Nc1cc(NC(C)=O)cc(-c2nc3ccccc3[nH]2)c1,–,inactive: -14.1%
CCN1CCN(c2c(S(=O)(=O)c3ccc(OC)cc3)cnc3cc(OC)c(OC)cc23)CC1,"inconclusive [falling, partial curve, poor fit]",–
COc1ccc(OC)c(NC(=O)Cn2c(=O)n(Cc3ccccc3)c(=O)c3ccccc32)c1,"inconclusive [falling, partial curve, poor fit]",–
CCC1CCCCN1CCCNC(=O)c1cc2c(Cl)nc3ccccc3c2s1 (stereo not given),"inconclusive [falling, single point]",–
COc1cc2nc(SCc3cccc(Cl)c3)n3nc(CCn4nc(C)cc4C)nc3c2cc1OC,–,inactive: -2.71%
Cc1ccc(NC(=O)N(Cc2cn(C)c3ccccc23)C2CCCCC2)cc1C,–,inactive: -1.15%
CCCS(=O)(=O)c1ncc(Cl)c(C(=O)Nc2scc(-c3ccccc3)c2C(=O)OCC)n1,"inconclusive [falling, partial curve, poor fit]",–
COc1ccc(-c2nc(Cn3c(SCc4ccc(C)cc4)nc4cccnc43)c(C)o2)cc1OC,"inconclusive [falling, full curve, poor fit]",–
COc1ccc(C(=O)CC2(O)C(=O)N(Cc3ccccc3Cl)c3ccccc32)cc1 (stereo not given),"inconclusive [falling, single point]",–
CCOc1ccc(C2CC(=O)c3c([nH]c(C(=O)OCc4ccccc4)c3C)C2)cc1 (stereo not given),active: 4.14 µM,–
CCOC(=O)c1ccc2c(c1)N(Cc1cccc([N+](=O)[O-])c1)C(=O)c1ccccc1S2,"inconclusive [falling, single point]",–
Brc1ccc(-c2cc3c(N4CCN(c5ccccc5)CC4)nccn3n2)cc1,"inconclusive [falling, partial curve, poor fit]",–
O=C(CSc1nccn1-c1ccc(Cl)cc1)Nc1nc2ccccc2s1,–,inactive: -13.6%
CCCC(=O)Nc1nnc(SCc2cc(=O)c3ccc(C)cc3[nH]2)s1,"inconclusive [falling, single point]",–
COc1cccc(C(=O)NCC(=O)OCc2cc(=O)n3nc(C)sc3n2)c1,"inconclusive [falling, single point]",–
Cc1oc2ccc(O)c(CN(C)Cc3ccccc3)c2c1C(=O)Nc1cccc(Cl)c1C,"inconclusive [falling, partial curve]",–
COc1ccccc1-c1cc(C(F)(F)F)nc(S(=O)(=O)CCCC(=O)Nc2cc(C)ccc2O)n1,"inconclusive [falling, single point]",–
Cc1cccc(N2CCN(C(=O)c3ccc(CS(=O)c4cccc(Cl)c4)o3)CC2)c1C (stereo not given),active: 7.36 µM,–
CCSc1nnc2c(n1)OC(c1ccc(C)cc1)N(C(C)=O)c1ccccc1-2 (stereo not given),–,inactive: -2.2%
Cc1ccc(-c2[nH]c3ccccc3c2SCCNC(=O)c2ccc(S(=O)(=O)N(C)C)cc2)cc1,–,inactive: -12.2%
COc1cccc(-c2ccc3c(N)c(C(=O)c4ccc(Br)cc4)sc3n2)c1,"inconclusive [falling, single point]",–
